In PubChem BioAssay AID1346428 (National Center for Advancing Translational Sciences (NCATS), 2018):
Among all 48,000 compounds or so, about 1,200 (2.5%) were called active. Roughly 2% stayed inconclusive and do not appear here.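 The calls were made as follows: active = activation of at least 60% and not above a set upper limit (about 1 call in 100 departs from these limits); inconclusive = activation of 40% to 60%, or above that upper limit; inactive = activation under 40%.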 Some of the results follow.

target: Probable G-protein coupled receptor 32 (Homo sapiens) (UniProt O75388); assay: qHTS for Agonists of Human Resolvin D1 Receptor DRV1; conditions: CHO-K1 GPR32 beta-arrestin PathHunter luminescence, 90 min; at 76.9 µM; active compounds read high; zero percent set by DMSO-only wells; also: 0% is about no effect
Chain of UniProt O75388 (O75388 whole entry, looked up): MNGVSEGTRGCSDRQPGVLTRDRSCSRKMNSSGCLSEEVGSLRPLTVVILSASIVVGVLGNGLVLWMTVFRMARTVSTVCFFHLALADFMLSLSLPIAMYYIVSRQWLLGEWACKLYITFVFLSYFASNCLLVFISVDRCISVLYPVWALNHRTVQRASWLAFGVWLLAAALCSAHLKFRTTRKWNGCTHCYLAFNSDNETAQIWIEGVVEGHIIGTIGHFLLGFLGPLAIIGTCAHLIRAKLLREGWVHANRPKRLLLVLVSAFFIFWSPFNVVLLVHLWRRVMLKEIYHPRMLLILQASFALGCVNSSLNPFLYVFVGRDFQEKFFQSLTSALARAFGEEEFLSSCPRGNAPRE
How it was run: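 Engineered CHO-K1 line co-expressing GPR32-ProLink and EA-beta-arrestin. Compound treatment lasted 90 min at 37 °C. Luminescence was recorded after 1 h with substrate at ambient temperature, relative to DMSO basal wells.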

activation, inactive:
CC1CCCCN1C(=O)Cn1c(=O)n(-c2ccc(Cl)cc2)c(=O)c2c3c(sc21)CCC3 (configuration not stated) 5.03%
COc1cccc(NC(=O)Cn2c(=O)cc(C)c3c(C)nn(-c4cccc(F)c4)c32)c1 -11.8%
COc1cccc(NC(=O)C2CCN(S(=O)(=O)c3cccc4nonc34)CC2)c1 14.8%
COc1ccc(CNC(=O)c2ccc(NC(=O)N3CC4CCCN4c4ccccc43)cc2)cc1 (configuration not stated) -30.4%
CCN1CCN(C(c2ccc(OC)cc2)c2c(O)cc(C)n(Cc3ccco3)c2=O)CC1 (configuration not stated) -11.9%
CCN(CC)c1nc2c(-c3cccc(Br)c3)nnn2c2ccccc12 0.48%
Cc1ccc(-n2ncc(C(=O)NCCc3ccccc3)c2C2CCN(C(=O)OC(C)(C)C)CC2)c(C)c1 -18.3%
CCOC(=O)C1CCN(S(=O)(=O)c2cc3c4c(c2)CC(=O)N4CCC3)CC1 -26.8%
O=C(NCCc1ccccc1Cl)c1ccc2c(c1)nc1n2CCOC1 -7.03%
O=C(CSc1nc2c(c(=O)[nH]1)CN(Cc1ccc(F)cc1)CC2)Nc1ccccc1Cl 47.2%
CCN(CC)CCNC(=O)c1nn(-c2ccc(OC)c(Cl)c2)c(=O)c2c1c1ccccc1n2C 7.71%
O=C(NCCc1ccccc1)C1(c2cccs2)CCOCC1 1.32%
CN(C)S(=O)(=O)n1cc(/C=C(\NC(=O)c2ccccc2Cl)C(=O)NCCCn2ccnc2)c2ccccc21 18.7%
COc1cc(OC)cc(-c2nc3nc(C)c(CCC(=O)Nc4ccc(F)cc4F)c(C)n3n2)c1 0.366%
CCc1nn(C(C)C(=O)N2CCN(c3cccc(C(F)(F)F)c3)CC2)c(=O)c2cc3occc3n12 (configuration not stated) 8.73%
COc1cccc(C(=O)N2c3nc(-c4ccco4)nn3C3(CCCCC3)[C@@H]3CCCC[C@@H]32)c1 -36.5%
CCCNC(=O)c1c(C)nn(-c2cccc(C)c2)c1-n1cccc1 -8.29%
CCc1ccccc1NC(=O)CSCc1cnn(-c2ccccc2)c1-n1cccc1 -1.02%
Cc1ccc(Cn2cc(C(=O)c3ccc(F)cc3)c(=O)c3cc4c(cc32)OCCO4)cc1 -5.85%
CCOc1ccccc1CNCCNC(=O)c1nonc1N 14.9%
COc1cc(OC)c(NC(=O)CC(c2cccs2)N2Cc3ccccc3C2=O)cc1Cl (configuration not stated) -7.13%
Cc1ccc2ncc3c(-c4ccc(F)cc4)nn(-c4cccc(F)c4)c3c2c1 -16.7%
